Measured values published in the supplement of paper PMC8728848.
The list shows a part of the results.

Columns and labels:
Assay in all cases: glycan array binding signal (z-score within array); higher = stronger binding
Conditions in all cases: glycan notation: IUPAC condensed, linker removed
[1] = molecular target: Glc(a1-3)Glc(a1-3)Man(a1-2)Man(a1-2)Man(a1-3)[Man(a1-3)[Man(a1-6)]Man(a1-6)]Man(b1-4)GlcNAc
Procedure, shortened: (§1)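 Arrays were curated from the Consortium for Functional Glycomics database, 3228 in total, and kept only where the protein sequence was available. Binding is expressed as a within-array Z-score. This score was averaged across arrays of the same protein sequence at different concentrations or buffers and across linkers, and negative values can be read as non-binding.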

[2] = molecular target: Glc(a1-3)Man(a1-2)Man(a1-2)Man(a1-3)[Man(a1-2)Man(a1-3)[Man(a1-2)Man(a1-6)]Man(a1-6)]Man(b1-4)GlcNAc(b1-4)GlcNAc
Procedure, shortened: as §1

Glc(a1-4)Glc = molecular target: Glc(a1-4)Glc
Procedure, shortened: as §1

Glc(a1-4)Glc(a1-4)Glc = molecular target: Glc(a1-4)Glc(a1-4)Glc
Procedure, shortened: as §1

[3] = molecular target: Glc(a1-4)Glc(a1-4)Glc(a1-4)Glc
Procedure, shortened: as §1

[4] = molecular target: Glc(a1-4)Glc(a1-4)Glc(a1-4)Glc(a1-4)Glc
Procedure, shortened: as §1

[5] = molecular target: Glc(a1-4)Glc(a1-4)Glc(a1-4)Glc(a1-4)Glc(a1-4)Glc
Procedure, shortened: as §1

[6] = molecular target: Glc(a1-4)Glc(a1-4)Glc(a1-4)Glc(a1-4)Glc(a1-4)Glc(a1-4)Glc
Procedure, shortened: as §1

[7] = molecular target: Glc(a1-4)Glc(a1-4)Glc(a1-4)Glc(a1-4)Glc(a1-4)Glc(a1-4)Glc(a1-4)Glc
Procedure, shortened: as §1

[8] = molecular target: Glc(a1-4)Glc(a1-4)Glc(a1-4)Glc(a1-4)Glc(a1-4)Glc(a1-4)Glc(a1-4)Glc(a1-4)Glc
Procedure, shortened: as §1

[9] = molecular target: Glc(a1-4)Glc(a1-4)Glc(a1-4)Glc(a1-4)Glc(a1-4)Glc(a1-4)Glc(a1-4)Glc(a1-4)Glc(a1-4)Glc
Procedure, shortened: as §1

[10] = molecular target: Glc(a1-4)Glc(a1-4)Glc(a1-4)Glc(a1-4)Glc(a1-4)Glc(a1-4)Glc(a1-4)Glc(a1-4)Glc(a1-4)Glc(a1-4)Glc
Procedure, shortened: as §1

[11] = molecular target: Glc(a1-4)Glc(a1-4)Glc(a1-4)Glc(a1-4)Glc(a1-4)Glc(a1-4)Glc(a1-4)Glc(a1-4)Glc(a1-4)Glc(a1-4)Glc(a1-4)Glc
Procedure, shortened: as §1

[12] = molecular target: Glc(a1-4)Glc(a1-4)Glc(a1-4)Glc(a1-4)Glc(a1-4)Glc(a1-4)Glc(a1-4)Glc(a1-4)Glc(a1-4)Glc(a1-4)Glc(a1-4)Glc(a1-4)Glc
Procedure, shortened: as §1

Glc(a1-6)Glc = molecular target: Glc(a1-6)Glc
Procedure, shortened: as §1

[13] = molecular target: Glc(a1-6)Glc(a1-4)Glc(a1-4)Glc
Procedure, shortened: as §1

Glc(a1-6)Glc(a1-6)Glc = molecular target: Glc(a1-6)Glc(a1-6)Glc
Procedure, shortened: as §1

[14] = molecular target: Glc(a1-6)Glc(a1-6)Glc(a1-6)Glc
Procedure, shortened: as §1

[15] = molecular target: Glc(a1-6)Glc(a1-6)Glc(a1-6)Glc(a1-6)Glc
Procedure, shortened: as §1

[16] = molecular target: Glc(a1-6)Glc(a1-6)Glc(a1-6)Glc(a1-6)Glc(a1-6)Glc
Procedure, shortened: as §1

[17] = molecular target: Glc(a1-6)Glc(a1-6)Glc(a1-6)Glc(a1-6)Glc(a1-6)Glc(a1-6)Glc
Procedure, shortened: as §1

[18] = molecular target: Glc(a1-6)Glc(a1-6)Glc(a1-6)Glc(a1-6)Glc(a1-6)Glc(a1-6)Glc(a1-6)Glc
Procedure, shortened: as §1

[19] = molecular target: Glc(a1-6)Glc(a1-6)Glc(a1-6)Glc(a1-6)Glc(a1-6)Glc(a1-6)Glc(a1-6)Glc(a1-6)Glc
Procedure, shortened: as §1

[20] = molecular target: Glc(a1-6)Glc(a1-6)Glc(a1-6)Glc(a1-6)Glc(a1-6)Glc(a1-6)Glc(a1-6)Glc(a1-6)Glc(a1-6)Glc
Procedure, shortened: as §1

[21] = molecular target: Glc(a1-6)Glc(a1-6)Glc(a1-6)Glc(a1-6)Glc(a1-6)Glc(a1-6)Glc(a1-6)Glc(a1-6)Glc(a1-6)Glc(a1-6)Glc
Procedure, shortened: as §1

[22] = molecular target: Glc(a1-6)Glc(a1-6)Glc(a1-6)Glc(a1-6)Glc(a1-6)Glc(a1-6)Glc(a1-6)Glc(a1-6)Glc(a1-6)Glc(a1-6)Glc(a1-6)Glc
Procedure, shortened: as §1

[23] = molecular target: Glc(a1-6)Glc(a1-6)Glc(a1-6)Glc(a1-6)Glc(a1-6)Glc(a1-6)Glc(a1-6)Glc(a1-6)Glc(a1-6)Glc(a1-6)Glc(a1-6)Glc(a1-6)Glc
Procedure, shortened: as §1

Glc(b1-2)Glc = molecular target: Glc(b1-2)Glc
Procedure, shortened: as §1

Glc(b1-3)Glc = molecular target: Glc(b1-3)Glc
Procedure, shortened: as §1

Glc(b1-3)Glc(b1-3)Glc = molecular target: Glc(b1-3)Glc(b1-3)Glc
Procedure, shortened: as §1

[24] = molecular target: Glc(b1-3)Glc(b1-3)Glc(b1-3)Glc
Procedure, shortened: as §1

[25] = molecular target: Glc(b1-3)Glc(b1-3)Glc(b1-3)Glc(b1-3)Glc
Procedure, shortened: as §1

[26] = molecular target: Glc(b1-3)Glc(b1-3)Glc(b1-3)Glc(b1-3)Glc(b1-3)Glc
Procedure, shortened: as §1

[27] = molecular target: Glc(b1-3)Glc(b1-3)Glc(b1-3)Glc(b1-3)Glc(b1-3)Glc(b1-3)Glc
Procedure, shortened: as §1

[28] = molecular target: Glc(b1-3)Glc(b1-3)Glc(b1-3)Glc(b1-3)Glc(b1-3)Glc(b1-3)Glc(b1-3)Glc
Procedure, shortened: as §1

[29] = molecular target: Glc(b1-3)Glc(b1-3)Glc(b1-3)Glc(b1-3)Glc(b1-3)Glc(b1-3)Glc(b1-3)Glc(b1-3)Glc
Procedure, shortened: as §1

[30] = molecular target: Glc(b1-3)Glc(b1-3)Glc(b1-3)Glc(b1-3)Glc(b1-3)Glc(b1-3)Glc(b1-3)Glc(b1-3)Glc(b1-3)Glc
Procedure, shortened: as §1

[31] = molecular target: Glc(b1-3)Glc(b1-3)Glc(b1-3)Glc(b1-3)Glc(b1-3)Glc(b1-3)Glc(b1-3)Glc(b1-3)Glc(b1-3)Glc(b1-3)Glc
Procedure, shortened: as §1

[32] = molecular target: Glc(b1-3)Glc(b1-3)Glc(b1-3)Glc(b1-3)Glc(b1-3)Glc(b1-3)Glc(b1-3)Glc(b1-3)Glc(b1-3)Glc(b1-3)Glc(b1-3)Glc
Procedure, shortened: as §1

[33] = molecular target: Glc(b1-3)Glc(b1-3)Glc(b1-3)Glc(b1-3)Glc(b1-3)Glc(b1-3)Glc(b1-3)Glc(b1-3)Glc(b1-3)Glc(b1-3)Glc(b1-3)Glc(b1-3)Glc
Procedure, shortened: as §1

Glc(b1-4)Glc = molecular target: Glc(b1-4)Glc
Procedure, shortened: as §1

Glc(b1-4)Glc(b1-4)Glc = molecular target: Glc(b1-4)Glc(b1-4)Glc
Procedure, shortened: as §1

[34] = molecular target: Glc(b1-4)Glc(b1-4)Glc(b1-4)Glc
Procedure, shortened: as §1

[35] = molecular target: Glc(b1-4)Glc(b1-4)Glc(b1-4)Glc(b1-4)Glc
Procedure, shortened: as §1

[36] = molecular target: Glc(b1-4)Glc(b1-4)Glc(b1-4)Glc(b1-4)Glc(b1-4)Glc
Procedure, shortened: as §1

Measured: glycan array binding signal (z-score)

B1: HysACBM (Streptococcus pneumoniae), Q54873 (protein)
chain: KNLVENGDFGQTEDGSSPWTGSKAQGWSAWVDQKNSADASTRVIEAKDGAITISSHEKLRAALHRMVPIEAKKKYKLRFKIKTDNKIGIAKVRIIEESGKDKRLWNSATTSGTKDWQTIEADYSPTLDVDKIKLELFYETGTGTVSFKDIELVEVADQLS
-0.033: [36]
0.136: [10]
-0.091: [1] | [2] | Glc(a1-4)Glc | Glc(a1-4)Glc(a1-4)Glc | [3] | [4] | [8] | [9] | [11] | [12] | Glc(a1-6)Glc | Glc(a1-6)Glc(a1-6)Glc | [14] | [15] | [16] | [17] | [18] | [19] | [21] | [22] | [23] | Glc(b1-2)Glc | Glc(b1-3)Glc | Glc(b1-3)Glc(b1-3)Glc | [24] | [25] | [26] | [27] | [28] | [29] | [30] | [32] | [33] | Glc(b1-4)Glc | Glc(b1-4)Glc(b1-4)Glc | [34] | [35]
0.776: [7]
0.112: [5]
-0.026: [6]
-0.059: [13]
0.169: [31]
-0.044: [20]
